This note sets out measurements from publication PMC4944999 (PLoS ONE, 2016).

For this assay, the target named is Aichi H3N2 binding to 2,6'-sialyllactose. As to conditions: read-out: IC50, inhibition of virus binding to immobilized 2,6'-sialyllactose.

Where two headings read alike, the source gives them in different places. Where no end group is shown, it is not given here.

As for `CC(=O)N[C@H]1[C@H]([C@H](O)[C@H](O)CO)O[C@@](OC[C@H]2O[C@@H](O[C@H]3[C@H](O)[C@@H](O)C(O)O[C@@H]3CO)[C@H](O)[C@@H](O)[C@H]2O)(C(=O)O)C[C@@H]1O` (some centres unmarked) [2,6‘-sialyllactose, reference compound], the IC50 – broadly, the midpoint of a concentration-inhibition curve – turned out to be 1790 ± 90 µM. For ARDFYDYDVFYYAMD-NH2 [PeB], where the note is “SPR, biotinylated α-2,6’-sialyllactose on neutravidin surface (650 RU), virus preincubated with inhibitor, sigmoidal fit, duplicate experiments”, the IC50 was determined as 120 ± 7 µM.
